Consider 57 molecules from publication PMC4336329 (PLoS ONE, 2015).

Molecules are shown by their SMILES. About 2,200 (0.71%) of roughly 310,000 compounds showed an effect of 50% or more. Effects have a minus sign here. This is one part of the list.

The target of this assay is human ether-à-go-go-related gene (hERG) potassium channel (human, UniProt Q12809). Briefly: primary screen, population patch clamp on CHO cells stably expressing hERG.
Sequence of human ether-à-go-go-related gene (hERG) potassium channel (Q12809 whole entry, looked up): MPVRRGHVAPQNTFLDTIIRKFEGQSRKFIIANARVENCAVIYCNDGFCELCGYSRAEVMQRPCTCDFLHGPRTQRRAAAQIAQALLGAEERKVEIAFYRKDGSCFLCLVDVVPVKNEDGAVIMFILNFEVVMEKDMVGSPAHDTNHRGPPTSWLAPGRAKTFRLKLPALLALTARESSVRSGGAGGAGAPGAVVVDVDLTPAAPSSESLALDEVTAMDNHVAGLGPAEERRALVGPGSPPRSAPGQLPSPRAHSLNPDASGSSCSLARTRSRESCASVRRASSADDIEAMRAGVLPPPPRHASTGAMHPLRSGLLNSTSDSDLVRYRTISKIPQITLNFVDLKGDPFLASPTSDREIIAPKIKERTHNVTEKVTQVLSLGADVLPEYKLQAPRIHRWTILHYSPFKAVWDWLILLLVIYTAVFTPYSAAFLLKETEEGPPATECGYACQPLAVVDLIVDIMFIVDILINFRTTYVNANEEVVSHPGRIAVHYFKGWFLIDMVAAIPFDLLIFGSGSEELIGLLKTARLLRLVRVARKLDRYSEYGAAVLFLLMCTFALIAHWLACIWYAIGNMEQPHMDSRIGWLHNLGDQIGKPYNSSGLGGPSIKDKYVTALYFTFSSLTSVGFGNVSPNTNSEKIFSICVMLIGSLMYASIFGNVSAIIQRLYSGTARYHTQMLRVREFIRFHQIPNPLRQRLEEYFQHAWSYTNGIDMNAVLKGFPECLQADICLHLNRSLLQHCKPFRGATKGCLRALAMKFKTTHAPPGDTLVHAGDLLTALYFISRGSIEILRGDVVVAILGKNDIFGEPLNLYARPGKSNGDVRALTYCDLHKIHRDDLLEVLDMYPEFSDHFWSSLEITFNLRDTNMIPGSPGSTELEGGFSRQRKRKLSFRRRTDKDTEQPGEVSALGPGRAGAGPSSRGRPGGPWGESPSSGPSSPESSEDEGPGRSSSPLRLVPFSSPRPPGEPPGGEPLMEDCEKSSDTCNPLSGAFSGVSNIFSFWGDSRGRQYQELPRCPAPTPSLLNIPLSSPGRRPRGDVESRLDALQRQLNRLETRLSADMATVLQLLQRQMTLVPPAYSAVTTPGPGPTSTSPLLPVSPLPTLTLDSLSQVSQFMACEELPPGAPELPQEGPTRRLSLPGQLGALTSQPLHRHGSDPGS
Take `Cc1cccc(-n2c(C)cc(/C=C3\NC(=O)NC3=O)c2C)c1`: the “hERG current change (%, negative = inhibition) at 1uM” value is 14.1%.

As to `COC(=O)c1ccccc1S(=O)(=O)Nc1ccc(OC)nc1`, the “hERG current change (%, negative = inhibition) at 1uM” value turned out to be 3.51%.

`COc1ccc(NC(=S)N(CCc2ccc(OC)c(OC)c2)Cc2ccccn2)cc1`: the “hERG current change (%, negative = inhibition) at 1uM” value was determined as 0.952%.

As for `OCCC1CN(Cc2cccc3nonc23)CCN1Cc1ccsc1` (stereo not drawn), the “hERG current change (%, negative = inhibition) at 1uM” value is reported as -15.7%.

As for `Cc1ccccc1NC(=O)CCl`, the “hERG current change (%, negative = inhibition) at 1uM” value was 12.8%.

For the molecule `CCOC(=O)CNc1c(-c2ccc(O)cc2)nc2ccccn12`, the “hERG current change (%, negative = inhibition) at 1uM” value is on record as -5.62%.

In the case of `CCOc1ccc(CCNC(=O)C2CCN(c3ccc(N4CCOCC4)nn3)CC2)cc1OCC`, the “hERG current change (%, negative = inhibition) at 1uM” value came to 2.39%.

For the molecule `NC(=O)C1CCN(C(=O)CCSc2ccccc2)CC1`, the “hERG current change (%, negative = inhibition) at 1uM” value is on record as 5.63%.

On to `Cc1nc(-c2nnc(SCC(=O)Nc3ccc(C(F)(F)F)cc3)n2C)cs1`, for which the “hERG current change (%, negative = inhibition) at 1uM” value was found to be 8.2%.

Consider `Cc1nc(SCC(=O)N2CCCc3ccccc32)c2oc3ccccc3c2n1`, for which the “hERG current change (%, negative = inhibition) at 1uM” value came to 12.1%.

As to `FC(F)(F)C12CC(c3ccccc3)=NCCN1CCN2` (stereo not drawn), the “hERG current change (%, negative = inhibition) at 1uM” value stood at 14.6%.

Regarding `COc1ccc(N2CCN(C(c3cccs3)C(C)NC(=O)C(=O)N3CCOCC3)CC2)cc1` (stereo not drawn), the “hERG current change (%, negative = inhibition) at 1uM” value is 16.6%.

On to `Nc1ncnc2c1ncn2C1CCCO1` (stereo not drawn), for which the “hERG current change (%, negative = inhibition) at 1uM” value is listed as 12.1%.

Take `Cc1cccc(-n2ncc3c2CCCC3NC(=O)CCc2cccnc2)c1C` (stereo not drawn): the “hERG current change (%, negative = inhibition) at 1uM” value worked out at 14.5%.

As to `COc1ccc(CCN2C(=O)NC(NS(=O)(=O)c3ccc(Cl)cc3)(C(F)(F)F)C2=O)cc1OC` (stereo not drawn), the “hERG current change (%, negative = inhibition) at 1uM” value was found to be 11.7%.

With `CC(O)C(=O)O.COc1ccc(CN(CC(O)COc2cccc3[nH]cc(C)c23)C(C)(C)C)cc1` (stereo not drawn), the “hERG current change (%, negative = inhibition) at 1uM” value is -31%.

With `CC(C)NC(=O)NC(=O)COC(=O)CCCSc1nc2ccccc2s1`, the “hERG current change (%, negative = inhibition) at 1uM” value is recorded as 8.89%.

`CC(C)N1CCC2(CC1)NC(CO)(CO)CO2`: the “hERG current change (%, negative = inhibition) at 1uM” value stood at 17.2%.

With `O=c1[nH]c(/C=C\c2ccccc2F)nc(O)c1[N+](=O)[O-]`, the “hERG current change (%, negative = inhibition) at 1uM” value worked out at 12.3%.

As to `COP(=O)(OC)/C(C=O)=N/Nc1ccc([N+](=O)[O-])cc1`, the “hERG current change (%, negative = inhibition) at 1uM” value is reported as -14.7%.

`CCN(Cc1ccccc1)S(=O)(=O)c1c[nH]c(C(=O)OC)c1`: the “hERG current change (%, negative = inhibition) at 1uM” value is recorded as 3.79%.

As for `Cc1cc(C(=O)OCC(=O)NC(C)c2ccccc2)c(C)o1` (stereo not drawn), the “hERG current change (%, negative = inhibition) at 1uM” value worked out at 10.6%.

As to `N#Cc1nc(COc2ccccc2F)oc1NCCc1ccccc1`, the “hERG current change (%, negative = inhibition) at 1uM” value is 10.3%.

In the case of `Cc1nccn1CC(O)COc1ccc([N+](=O)[O-])cc1` (stereo not drawn), the “hERG current change (%, negative = inhibition) at 1uM” value is -41.3%.

With `Cc1oc(-c2ccccc2F)nc1CS(=O)(=O)CC(=O)N1CCN(c2ccccc2)CC1`, the “hERG current change (%, negative = inhibition) at 1uM” value came to 13.6%.

Consider `O=C(COC(=O)c1cc(Br)ccc1O)Nc1cccnc1Cl`, for which the “hERG current change (%, negative = inhibition) at 1uM” value stood at 14.2%.

On to `CC(=O)c1ccc(OCCCC(=O)NC2CCC(C)CC2)cc1` (stereo not drawn), for which the “hERG current change (%, negative = inhibition) at 1uM” value is reported as 4.82%.

As for `O=C(NCc1ccc(Cl)cc1)c1nccnc1CO`, the “hERG current change (%, negative = inhibition) at 1uM” value is 11%.

As to `COc1ccc(F)cc1S(=O)(=O)N1CCCC(C)C1` (stereo not drawn), the “hERG current change (%, negative = inhibition) at 1uM” value is on record as 0.819%.

As for `Cc1csc(CN(C)C(=O)C2CCC(=O)N(CCCc3ccccc3)C2)n1` (stereo not drawn), the “hERG current change (%, negative = inhibition) at 1uM” value is reported as 4.5%.

Take `CC(C)(C)c1ccc(-c2nnc3sc(-c4ccccn4)nn23)cc1`: the “hERG current change (%, negative = inhibition) at 1uM” value is recorded as 2.32%.

With `COC(=O)CCSc1cc(NCCOC(C)=O)c([N+](=O)[O-])c2nonc12`, the “hERG current change (%, negative = inhibition) at 1uM” value stood at 5.08%.

For `COc1ccc(NC(=O)COc2nsnc2N2CCOCC2)cc1`, the “hERG current change (%, negative = inhibition) at 1uM” value amounted to 19%.

Regarding `CC(=O)c1cccc(S(=O)(=O)NCC(C)(C)N2CCOCC2)c1.O=C(O)C(=O)O`, the “hERG current change (%, negative = inhibition) at 1uM” value is on record as 9.67%.

For the molecule `CCCCCCCCCCCC(=O)NC(C(=O)OCC)C(O)c1cccc([N+](=O)[O-])c1` (stereo not drawn), the “hERG current change (%, negative = inhibition) at 1uM” value amounted to 11.1%.

As for `Cn1c(=O)c2sccc2n2c(CCCC(=O)NCc3ccc(F)cc3)nnc12`, the “hERG current change (%, negative = inhibition) at 1uM” value worked out at 19.3%.

For the molecule `CCOC(=O)C1=C(C)C2C3C(=O)N(c4cc(C)ccc4C)C(=O)C3C1(C)C1C(=O)N(c3cc(C)ccc3C)C(=O)C21` (stereo not drawn), the “hERG current change (%, negative = inhibition) at 1uM” value is recorded as 17.4%.

With `COc1c(C)cccc1C(=O)Nc1ccc(N2CCOCC2)c(Cl)c1`, the “hERG current change (%, negative = inhibition) at 1uM” value was -10.9%.

As for `Cc1ccnc(NC(=O)CNC(=O)C23CC4CC(CC(C4)C2)C3)c1`, the “hERG current change (%, negative = inhibition) at 1uM” value is -0.0117%.

With `O=C(O)C1CC1C(=O)N1CCN(c2ccc(Cl)c(Cl)c2)CC1` (stereo not drawn), the “hERG current change (%, negative = inhibition) at 1uM” value is 0.698%.

As for `N/C(CCN1CCCCC1)=N/O`, the “hERG current change (%, negative = inhibition) at 1uM” value turned out to be 2.32%.

Turning to `Cc1nn(C)c(C)c1S(=O)(=O)NC1CCCC1`, the “hERG current change (%, negative = inhibition) at 1uM” value worked out at 3.1%.

Consider `COC(=O)C1=C(C)N(Cc2ccc(OC)cc2)C(=O)/C1=C\c1ccco1`, for which the “hERG current change (%, negative = inhibition) at 1uM” value is 2.54%.

As to `COc1cccc(-n2nnnc2SCC(=O)Nc2nc3c(s2)CCCC3)c1`, the “hERG current change (%, negative = inhibition) at 1uM” value is reported as -0.0399%.

As to `COc1ccc2c(c1)CCC/C2=N\OC(=O)c1ccccc1F`, the “hERG current change (%, negative = inhibition) at 1uM” value was determined as 3.57%.

`COc1ccc(C2c3ccsc3CCN2C(C)=O)cc1` (stereo not drawn): the “hERG current change (%, negative = inhibition) at 1uM” value is given as 5.7%.

As to `COc1ccc(N(CC(=O)NCCC2=CCCCC2)S(=O)(=O)c2c(C)[nH]c(=O)[nH]c2=O)cc1`, the “hERG current change (%, negative = inhibition) at 1uM” value was found to be 14.1%.

`CN(Cc1ccccc1)C(=O)c1[nH]cnc1C(=O)NCC(=O)OC(C)(C)C`: the “hERG current change (%, negative = inhibition) at 1uM” value turned out to be 8.76%.

Regarding `COc1cc(NC(=O)CCN2CCOCC2)cc(OC)c1`, the “hERG current change (%, negative = inhibition) at 1uM” value was determined as 17.1%.

For the molecule `CC(OC(=O)C1CCCCC1)C(=O)Nc1cccc([N+](=O)[O-])c1` (stereo not drawn), the “hERG current change (%, negative = inhibition) at 1uM” value is 12.5%.

Regarding `COc1ccc(F)cc1S(=O)(=O)n1nnc2ccccc21`, the “hERG current change (%, negative = inhibition) at 1uM” value worked out at 5.45%.

For `C=CCn1c(=N)c(C(=O)OCC)cc2c(=O)n3cccc(C)c3nc21`, the “hERG current change (%, negative = inhibition) at 1uM” value is given as -73.7%.

In the case of `NC(=O)CC(NC(=O)Cc1cccc2ccccc12)c1ccc(N2CCCCCCC2)c([N+](=O)[O-])c1` (stereo not drawn), the “hERG current change (%, negative = inhibition) at 1uM” value was determined as 1.69%.

Regarding `Nc1nc(CSc2nnc(-c3cccc(F)c3)n2-c2ccccc2)nc(N2CCOCC2)n1`, the “hERG current change (%, negative = inhibition) at 1uM” value was 5.47%.

In the case of `Cc1cc(C(=O)O/N=C(\N)c2ccncc2)ccc1[N+](=O)[O-]`, the “hERG current change (%, negative = inhibition) at 1uM” value worked out at 0.826%.

In the case of `COc1ccc(CN2CCCCCC2)cc1Br`, the “hERG current change (%, negative = inhibition) at 1uM” value stood at 10%.

Regarding `Cc1ccc(C(=O)Oc2coc(CSc3nnc(NC(=O)C4CC4)s3)cc2=O)cc1`, the “hERG current change (%, negative = inhibition) at 1uM” value is 5.23%.
